# Measured values from PubChem BioAssay (NCATS).
# Several values for one entry are separate records, joined by “and”; a condition that tells them apart may be missing. Equal entries are not always repeated. Inconclusive results, whose numbers are uncertain, are shown with a selection of clear calls. For some of these results: Potencies of inconclusive entries are doubtful fits and often do not repeat. Some structures have more than one record in an assay (separate samples or runs), and their calls can disagree. Activity calls are given as the source filed them. The call rests on the fitted dose curve; in most records, active means well fitted curve in the direction sought with a large enough effect; inconclusive means small, poorly fitted or top-dose-only effect, or another doubt; inactive means no such curve, though single readings can be large; an effect the other way counts as inactive or inconclusive.
# What was measured:
# [1] = system: HaCat; assay: Cytotoxic Profiling of Annotated Libraries Using Quantitative High-Throughput Screening (AID 1296008); conditions: Five cell lines viability, CellTiter-Glo ATP luminescence, 48-72 h; max response: stronger effect = lower value; further: nearly all actives have a fitted effect of over 60% in size
# Outline: (§1)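 Cells exposed to compounds for 48 or 72 hr at 37 degrees Celsius. Viability read as ATP-coupled luminescence with CellTiter-Glo after 10 min at room temperature.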
# [2] = system: KB-3-1; assay: as above; conditions: Five cell lines viability, CellTiter-Glo ATP luminescence, 48-72 h; max response: stronger effect = lower value
# Outline: as §1
# [3] = system: MCC-13; assay: qHTS assay to identify novel small-molecules to repurpose for Merkel cell carcinoma treatment (AID 1296009); conditions: MCC and control cell lines, CellTiter-Glo viability, 72 h; series mostly up to 46 µM; further: nearly all actives have a fitted effect of over 60% in size
# Outline: (§2)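 CellTiter-Glo luminescence after 72 hr compound exposure at 37 degree celsius gave cell viability. Libraries NPC and MIPE were run as 8- and 11-point dose responses; RLUs normalized to DMSO (negative) and no-cell (cytotoxicity) controls.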
# [4] = system: MKL-1; assay: as above; conditions: MCC and control cell lines, CellTiter-Glo viability, 72 h; series mostly up to 46 µM
# Outline: as §2
# [5] = system: UISO; assay: as above; conditions: MCC and control cell lines, CellTiter-Glo viability, 72 h; series mostly up to 46 µM
# Outline: as §2
# [6] = system: WaGa; assay: as above; conditions: MCC and control cell lines, CellTiter-Glo viability, 72 h; series mostly up to 46 µM
# Outline: as §2
# [7] = system: C33A; assay: Primary qHTS to identify gynecologic anti-cancer compounds using libraries of approved drugs and bioactive compounds (AID 1345084); conditions: Gynecologic cancer cell panel viability, ATPlite luminescence, 48 h; series mostly up to 57.5 µM; further: nearly all actives have a fitted effect of over 55% in size
# Outline: (§3)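 Measured: luminescence after ATPlite addition (15 min, RT). Exposure: 48 h, 37 C, 5% CO2.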
# [8] = system: CAOV3; assay: as above; conditions: Gynecologic cancer cell panel viability, ATPlite luminescence, 48 h; series mostly up to 57.5 µM
# Outline: as §3
# [9] = system: CASKI; assay: as above; conditions: Gynecologic cancer cell panel viability, ATPlite luminescence, 48 h; series mostly up to 57.5 µM
# Outline: as §3
# [10] = system: Es-2; assay: as above; conditions: Gynecologic cancer cell panel viability, ATPlite luminescence, 48 h; series mostly up to 57.5 µM
# Outline: as §3
# [11] = system: Hek293T; assay: as above; conditions: Gynecologic cancer cell panel viability, ATPlite luminescence, 48 h, control line for the selectivity index; series mostly up to 57.5 µM
# Outline: as §3
# [12] = system: OV90; assay: as above; conditions: Gynecologic cancer cell panel viability, ATPlite luminescence, 48 h; series mostly up to 57.5 µM
# Outline: as §3
# [13] = system: SKOV3; assay: as above; conditions: Gynecologic cancer cell panel viability, ATPlite luminescence, 48 h; series mostly up to 57.5 µM
# Outline: as §3
# [14] = system: MCC-26; assay: qHTS assay to identify novel small-molecules to repurpose for Merkel cell carcinoma treatment (AID 1296009); conditions: MCC and control cell lines, CellTiter-Glo viability, 72 h; activity change, negative = cytotoxicity: at 46 µM (top of the series); further: nearly all actives have a fitted effect of over 60% in size
# Outline: as §2
# [15] = system: MKL-2; assay: as above; conditions: MCC and control cell lines, CellTiter-Glo viability, 72 h; activity change, negative = cytotoxicity: at 46 µM (top of the series)
# Outline: as §2
# [16] = system: HeLa; assay: Primary qHTS to identify gynecologic anti-cancer compounds using libraries of approved drugs and bioactive compounds (AID 1345084); conditions: Gynecologic cancer cell panel viability, ATPlite luminescence, 48 h; series mostly up to 57.5 µM; further: nearly all actives have a fitted effect of over 55% in size
# Outline: as §3
# [17] = system: JEG-3; assay: as above; conditions: Gynecologic cancer cell panel viability, ATPlite luminescence, 48 h; series mostly up to 57.5 µM
# Outline: as §3
# [18] = system: PA-1; assay: as above; conditions: Gynecologic cancer cell panel viability, ATPlite luminescence, 48 h; series mostly up to 57.5 µM
# Outline: as §3
# [19] = system: NIH3T3; assay: Cytotoxic Profiling of Annotated Libraries Using Quantitative High-Throughput Screening (AID 1296008); conditions: Five cell lines viability, CellTiter-Glo ATP luminescence, 48-72 h; max response: stronger effect = lower value; further: nearly all actives have a fitted effect of over 60% in size
# Outline: as §1
# On the % scale 0 is the no-effect control and ±100 the full control effect; potency means the concentration at half of the fitted maximal effect; tags describe the fitted curve by direction and shape.
structure (smiles),measurement,setting,value
CC(C)CNc1ccnc(NCc2csc(-c3ccccc3)n2)n1,Potency,[1],active: 16.4 µM
same,Potency,[2],"inconclusive: 13.2 µM [inhibitor, partial curve] and active: 14.6 µM"
same,Potency,[3],"inconclusive: 26.4 µM [inhibitor, single point]"
same,Potency,[4],"inconclusive: 20.9 µM [inhibitor, partial curve]"
same,Potency,[5],active: 13.2 µM
same,Potency,[6],"inconclusive: 14.8 µM [inhibitor, partial curve]"
same,Potency,[7],"inconclusive: 15.8 µM [cytotoxic, partial curve, poor fit]"
same,Potency,[8],"inconclusive: 39.8 µM [cytotoxic, single point]"
same,Potency,[9],"inconclusive: 28.2 µM [cytotoxic, single point]"
same,Potency,[10],active: 22.4 µM
same,Potency,[11],"inconclusive: 8.91 µM [cytotoxic, partial curve, poor fit]"
same,Potency,[12],"inconclusive: 3.55 µM [cytotoxic, partial curve]"
same,Potency,[13],active: 11.2 µM
CC(=NNC(=S)N1CCC1)c1ccccn1,Potency,[1],"inconclusive: 1.48 µM [inhibitor, partial curve, poor fit]"
same,Potency,[2],"inconclusive: 0.0332 µM [inhibitor, full curve]"
same,Potency,[14],active: 0.418 µM
same,Potency,[5],active: 0.0033 µM
same,Potency,[6],active: 0.0007 µM
N=C1N=C(N)c2cc3ccccc3cc21,Potency,[1],"inconclusive: 68.6 µM [inhibitor, single point]"
same,Potency,[2],"inconclusive: 56.2 µM [inhibitor, single point]"
same,Potency,[3],active: 43.3 µM
same,Potency,[14],"inconclusive: 54.5 µM [inhibitor, single point]"
same,Potency,[4],active: 38.6 µM
same,Potency,[15],active: 24.3 µM
same,Potency,[5],active: 24.3 µM
same,Potency,[7],"inconclusive: 50.1 µM [cytotoxic, partial curve, poor fit]"
same,Potency,[8],"inconclusive: 31.6 µM [cytotoxic, partial curve, poor fit]"
same,Potency,[9],active: 31.6 µM
same,Potency,[10],"inconclusive: 70.8 µM [cytotoxic, single point]"
same,Potency,[16],"inconclusive: 25.1 µM [cytotoxic, partial curve]"
same,Potency,[11],active: 39.8 µM
same,Potency,[17],"inconclusive: 44.7 µM [cytotoxic, single point]"
same,Potency,[12],"inconclusive: 35.5 µM [cytotoxic, partial curve, poor fit]"
same,Potency,[18],active: 35.5 µM
same,Potency,[13],"inconclusive: 35.5 µM [cytotoxic, partial curve, poor fit]"
NS(=O)(=O)c1cccc2c1C(=O)c1cccc(O)c1C2=O,Potency,[1],"inconclusive: 37.2 µM [inhibitor, single point]"
same,Potency,[2],"inconclusive: 33.2 µM [inhibitor, single point]"
same,Potency,[14],active: 0.833 µM
same,Potency,[4],active: 0.132 µM
same,Potency,[5],active: 0.662 µM
same,Potency,[6],active: 0.132 µM
O=Nc1c(-c2c(O)[nH]c3cc(Br)ccc23)[nH]c2ccccc12,Potency,[1],active: 11.8 µM
same,Potency,[19],"inconclusive: 29.6 µM [inhibitor, single point]"
same,Potency,[14],active: 16.6 µM
same,Potency,[4],"inconclusive: 23.5 µM [inhibitor, single point]"
same,Potency,[6],"inconclusive: 23.5 µM [inhibitor, partial curve]"
Nc1nc(F)nc2c1ncn2[C@@H]1O[C@H](COP(=O)(O)O)[C@@H](O)[C@H]1O,Potency,[1],"inconclusive: 37.2 µM [inhibitor, single point]"
same,Potency,[4],"inconclusive: 29.6 µM [inhibitor, single point]"
same,Potency,[6],active: 14.8 µM
CC1=C(C(=O)O)N2C(=O)[C@@H](NC(=O)[C@H](N)C3=CCC=CC3)[C@H]2SC1,max response,[2],inactive: -3.32%
same,outcome,[2],inactive
same,Potency,[15],inactive
same,Potency,[5],inactive
same,Potency,[11],inactive
same,Potency,[18],inactive
